Measurements published in article PMC4336329 (PLoS ONE, 2015).
About 14,000 (4.5%) of roughly 310,000 compounds showed an effect of 50% or more. Effects have a minus sign here. Some of the results follow.

molecular target: human ether-à-go-go-related gene (hERG) potassium channel (human, UniProt Q12809); experiment: primary screen, population patch clamp on CHO cells stably expressing hERG
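Further: peak tail current of the secondary pulse compared with the same well before compound.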

Sequence of human ether-à-go-go-related gene (hERG) potassium channel (Q12809 whole entry, looked up): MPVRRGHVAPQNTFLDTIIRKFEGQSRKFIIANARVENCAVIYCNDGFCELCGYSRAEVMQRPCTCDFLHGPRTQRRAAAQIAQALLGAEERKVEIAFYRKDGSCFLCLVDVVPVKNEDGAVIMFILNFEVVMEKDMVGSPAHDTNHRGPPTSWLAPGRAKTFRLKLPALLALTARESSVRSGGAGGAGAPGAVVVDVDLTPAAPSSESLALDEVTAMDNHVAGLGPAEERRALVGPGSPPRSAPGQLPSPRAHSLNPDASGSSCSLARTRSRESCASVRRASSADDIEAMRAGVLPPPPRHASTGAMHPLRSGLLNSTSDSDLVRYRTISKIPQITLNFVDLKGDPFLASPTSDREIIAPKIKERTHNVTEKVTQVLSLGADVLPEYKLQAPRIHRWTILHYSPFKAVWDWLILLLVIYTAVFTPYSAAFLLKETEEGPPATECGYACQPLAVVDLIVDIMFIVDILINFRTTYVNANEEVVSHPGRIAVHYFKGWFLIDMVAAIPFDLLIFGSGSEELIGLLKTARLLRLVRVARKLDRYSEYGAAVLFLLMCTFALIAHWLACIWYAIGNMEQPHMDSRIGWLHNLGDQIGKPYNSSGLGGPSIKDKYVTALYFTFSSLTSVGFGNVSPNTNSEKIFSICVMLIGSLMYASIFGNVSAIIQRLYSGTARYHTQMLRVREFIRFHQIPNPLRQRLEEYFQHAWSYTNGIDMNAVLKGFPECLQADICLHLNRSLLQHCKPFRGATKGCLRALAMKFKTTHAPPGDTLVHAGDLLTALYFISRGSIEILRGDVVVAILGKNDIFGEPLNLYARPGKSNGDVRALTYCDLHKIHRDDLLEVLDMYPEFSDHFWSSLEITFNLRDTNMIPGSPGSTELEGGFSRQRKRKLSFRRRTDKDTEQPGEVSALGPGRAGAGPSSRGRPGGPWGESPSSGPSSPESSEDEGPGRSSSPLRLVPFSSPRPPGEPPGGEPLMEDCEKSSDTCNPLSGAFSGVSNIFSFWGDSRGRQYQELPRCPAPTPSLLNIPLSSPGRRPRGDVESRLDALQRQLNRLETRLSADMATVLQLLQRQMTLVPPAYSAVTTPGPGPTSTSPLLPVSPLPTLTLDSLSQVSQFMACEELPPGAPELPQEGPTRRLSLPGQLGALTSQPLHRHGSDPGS

Going from `COc1ccc(NC(=O)COC(=O)C2CCN(S(=O)(=O)c3cccs3)CC2)cc1` to `O=C(COC(=O)c1cccc(S(=O)(=O)N2CCOCC2)c1)Nc1ccc2c(c1)OCO2`, the “hERG current change (%, negative = inhibition) at 10uM” value rises from -26.8% to -1.52%.

Compared with `CC(NC(=O)COC(=O)[C@@H]1CCCN1S(=O)(=O)c1ccccc1F)C12CC3CC(CC(C3)C1)C2` (stereo partly drawn), `CN(CC(=O)NC1CCCc2ccccc21)C1CCCCC1` (stereo not drawn) is higher in “hERG current change (%, negative = inhibition) at 10uM” value: -10.7% for the first, 14.1% for the second.

Going from `CCCCCCCCOC(=O)/C=C/c1c(C)[nH]c(=O)[nH]c1=O` to `CCOC(=O)CSc1nc2ccsc2c(=O)[nH]1`, the “hERG current change (%, negative = inhibition) at 10uM” value rises from 10.7% to 26.3%.

Compared with `CN(C)N=Nc1ccc(S(=O)(=O)N2CCSC2C(=O)O)cc1` (stereo not drawn), `CCN1CCN(S(=O)(=O)c2ccc(Cl)c(C(=O)N(C)Cc3cccc(OC)c3)c2)CC1` is lower in “hERG current change (%, negative = inhibition) at 10uM” value: 2.21% for the first, -11.2% for the second.

Compared with `S=c1[nH]nc(-c2ccc3ccccc3n2)o1`, `Oc1ccc2ccccc2c1N=Nc1ccc(F)cc1` is lower in “hERG current change (%, negative = inhibition) at 10uM” value: 17.2% for the first, 1.05% for the second.

Going from `COc1ccc(N2CCOCC2)c(NC(=O)c2cccnc2)c1` to `O=C(Nc1ccccc1N1CCCCC1)c1ccc(-c2ccc(Cl)cc2)o1`, the “hERG current change (%, negative = inhibition) at 10uM” value falls from 12.8% to -10%.

Compared with `COc1ccc(C(=O)NC2CCC(O)CC2)cc1S(=O)(=O)NCc1ccc(Cl)cc1` (stereo not drawn), `COc1ccccc1NS(=O)(=O)c1ccc(C)c(C(=O)NC2=NCCS2)c1` is lower in “hERG current change (%, negative = inhibition) at 10uM” value: -6.07% for the first, -6.94% for the second.

Going from `N#CCc1ccc(OC(=O)c2cccnc2)cc1` to `O=C1CCC(C(=O)NCc2cccnc2)N1` (stereo not drawn), the “hERG current change (%, negative = inhibition) at 10uM” value rises from 6.71% to 18.8%.

Going from `Cn1c(=O)oc2cc(S(=O)(=O)NC3CCN(Cc4ccccc4)CC3)ccc21` to `O=S1(=O)N=C(N2CCN(Cc3ccc4c(c3)OCO4)CC2)c2ccccc21`, the “hERG current change (%, negative = inhibition) at 10uM” value rises from -36.4% to -31%.

First: COc1cc(/C=N\NC(=O)OC(C)(C)C)ccc1OC(=O)c1ccco1
Second: COc1ccc(/C=C/C(=O)Nc2ccc(C34CC5CC(CC(O)(C5)C3)C4)cc2)cc1OC
The “hERG current change (%, negative = inhibition) at 10uM” value of the first is higher: 36.3% for the first, 16.2% for the second.

First: CC1C=CCC2C(=O)N(c3cccc(C(=O)Nc4ccc(Br)cc4)c3)C(=O)C12 (stereo not drawn)
Second: O=C(Nc1ccc(Cn2nnc3ccccc32)cc1)c1ccco1
The “hERG current change (%, negative = inhibition) at 10uM” value of the first is lower: -15% for the first, -1.59% for the second.

Going from `Cc1ccc2cc(C(c3nnnn3CC3CCCO3)N3CCc4ccccc4C3)c(=O)[nH]c2c1` (stereo not drawn) to `Cc1cccc(NC(=O)N2CCCc3ccccc32)c1C`, the “hERG current change (%, negative = inhibition) at 10uM” value rises from -42.1% to -11.9%.

First: COc1ccc(-c2nn3cnnc3s2)cc1OC
Second: COc1cccc(-c2nnc(NC(=O)Cc3cccs3)s2)c1
The “hERG current change (%, negative = inhibition) at 10uM” value of the first is lower: -0.709% for the first, 10.3% for the second.

First: O=C(NCc1ccc2c(c1)OCO2)C(=S)N1CCOCC1
Second: CC(C)CC(OC(=O)c1ccco1)C(=O)NCC1CCCO1 (stereo not drawn)
The “hERG current change (%, negative = inhibition) at 10uM” value of the first is higher: 18.6% for the first, 7.97% for the second.

First: COC(=O)C(CSCc1ccccc1)NC(=O)CSc1nc(C)cc(=O)[nH]1 (stereo not drawn)
Second: CCOC(=O)CN1C(=O)N[C@@H](CCc2ccccc2)C(C(C)=O)=C1C
The “hERG current change (%, negative = inhibition) at 10uM” value of the first is higher: 18.4% for the first, -14.6% for the second.

First: COc1ccc([N+](=O)[O-])cc1NC(=O)CSc1nccc(C)n1
Second: COc1ccc(Cl)cc1N(CC(=O)NC(C)(C)C)S(=O)(=O)c1ccc(C)c([N+](=O)[O-])c1
The “hERG current change (%, negative = inhibition) at 10uM” value of the first is lower: -2.9% for the first, 0.912% for the second.

Going from `O=C1C=C(Nc2ccc(O)cc2)C(=O)c2ccccc21` to `CN(C)c1ccc(Nc2c3c4c(cccc4n(C)c2=O)C(=O)c2ccccc2-3)cc1`, the “hERG current change (%, negative = inhibition) at 10uM” value rises from 4.35% to 12.7%.

Compared with `COCCN(C(=O)c1cc(-c2ccncc2)nc2ccccc12)c1c(N)n(CC(C)C)c(=O)[nH]c1=O`, `Cc1c(NC(=O)C(C)Oc2ncnc3ccccc23)c(=O)n(-c2ccccc2)n1C` (stereo not drawn) is lower in “hERG current change (%, negative = inhibition) at 10uM” value: 3.66% for the first, -3.9% for the second.

Going from `COCCn1c(SCC(=O)N2CCC(C)CC2)nc2c(c1=O)SCC2` to `CCSc1nc2c(cnn2-c2ccccc2)c(=O)n1N`, the “hERG current change (%, negative = inhibition) at 10uM” value rises from -40.6% to 5.67%.

Going from `COc1ccc([C@H]2CC(=O)C=C(c3ccc(-c4ccccc4)c(F)c3)C2)cc1OC` to `O=c1cc(-c2ccccc2)oc2ccc(O)cc12`, the “hERG current change (%, negative = inhibition) at 10uM” value falls from 24.4% to -9.74%.

Compared with `O=C(COC(=O)/C=C/c1ccccc1)Nc1nnc(-c2ccccc2)o1`, `CCC(=O)N/N=C(\C)CC(=O)Nc1ccccc1-c1ccccc1` is higher in “hERG current change (%, negative = inhibition) at 10uM” value: 1.9% for the first, 4.21% for the second.

Compared with `Cc1ccc(C(=O)Cn2ncsc2=N)cc1`, `CC(=O)c1sc(N/N=C\c2ccc(C)cc2)nc1C` is lower in “hERG current change (%, negative = inhibition) at 10uM” value: -12.5% for the first, -14.5% for the second.

First: CC1(C)CC(=O)C(C2=NC3(CCCCCC3)Cc3ccccc32)=C(O)C1
Second: Cc1nc(C)c(CCNC(=O)c2ccccc2Br)s1
The “hERG current change (%, negative = inhibition) at 10uM” value of the first is lower: -12.7% for the first, -4.11% for the second.

First: CC(C)(C)C(=O)Nc1nnc(SCC(=O)NCc2cccs2)s1
Second: Cc1cccc(OCC(=O)Nc2nnn(C)n2)c1C
The “hERG current change (%, negative = inhibition) at 10uM” value of the first is higher: 16.3% for the first, 14.1% for the second.

Compared with `Nn1c(SCc2cc([N+](=O)[O-])cc3c2OCOC3)nnc1-c1ccccn1`, `Cc1nc2ccc(Cl)cc2c(=O)n1-c1ccc([N+](=O)[O-])cc1` is higher in “hERG current change (%, negative = inhibition) at 10uM” value: -6.82% for the first, -3% for the second.

Compared with `N#C/C(=C\c1ccc(Sc2ccc(Cl)cc2)o1)c1nc2ccccc2[nH]1`, `CCN(CC)CCCN=Cc1c(-c2ccccc2)[nH]n(-c2nc3ccccc3s2)c1=O` is lower in “hERG current change (%, negative = inhibition) at 10uM” value: 18.1% for the first, -78.2% for the second.

First: CS(=O)(=O)N1CCN(c2ncccn2)CC1
Second: COC(=O)c1sc(N)c(C(=O)OC)c1COC(=O)C1CC(=O)N(Cc2ccco2)C1 (stereo not drawn)
The “hERG current change (%, negative = inhibition) at 10uM” value of the first is higher: 13% for the first, -13.6% for the second.

Going from `CCOC(=O)c1c(NC(=O)c2ccc(Br)o2)sc(C)c1CC` to `Cc1cccc(NC(=O)C2(C)CC3c4ccccc4C2c2ccccc23)c1C` (stereo not drawn), the “hERG current change (%, negative = inhibition) at 10uM” value falls from -2.7% to -10.1%.

With `O=C(O)CCCNC(=O)c1nn(Cc2ccccc2)c(=O)c2ccccc12` the “hERG current change (%, negative = inhibition) at 10uM” value was 11.1%.
